# Values joined by “and” are separate entries in the source; they are usually repeats but may differ in a detail not shown here. Identical values can stand only once. The full ranking holds about 5,300 compounds; the median of “PER2::LUC luminescence relative to vehicle control” is about 0.96, and the highest 2% start at about 1.3. This is one part of the list.
# Tested on: mPer2Luc MEF
# Assay: PER2::LUC luminescence relative to vehicle control (fold of vehicle); higher = higher PER2::LUC reporter signal
# Conditions: 10 µM
# In short: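 The value is PER2::LUC luminescence expressed as fold of vehicle control. Mouse embryonic fibroblasts carrying the mPer2Luc reporter were seeded at ~3000 cells per well in 384-well plates and grown in DMEM with 10% FBS at 37 °C and 5% CO2. Compounds from commercial libraries were added at 10 μM 48 h after seeding, and luminescence was read with the ONE-Glo luciferase assay system 24 h and 30 h after treatment, followed by an alamarBlue viability assay.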
Structure (SMILES),PER2::LUC luminescence (time after treatment 24 h),PER2::LUC luminescence (time after treatment 30 h)
CCOc1ccc(C(=O)c2ccc(OC)c(O)c2O)cc1,0.983,0.916
O=C1NCN(c2ccccc2)C12CCN(CCCC(c1ccc(F)cc1)c1ccc(F)cc1)CC2,0.912,0.844
COc1cccc(OC)c1OCCNCC1COc2ccccc2O1 (configuration not stated),0.989 and 0.937,0.933 and 0.962
CCCC[S+]([O-])c1sc2nc(-c3cccs3)cc(-c3ccccc3)c2c1N (configuration not stated),0.864,0.882
CCCCOc1c(C(=O)c2c(F)cc(C)cc2F)c[nH]c2nncc1-2,0.643,0.792
CC[C@H]1OC(=O)[C@H](C)[C@@H](O[C@H]2C[C@@](C)(OC)[C@@H](O)[C@H](C)O2)[C@H](C)[C@@H](O[C@@H]2O[C@H](C)C[C@H](N(C)C)[C@H]2O)[C@](C)(OC)C[C@@H](C)C(=O)[C@H](C)[C@@H](O)[C@]1(C)O,0.914,0.874
Nc1ccc(-c2ccc3ccccc3n2)cc1,1.74,1.29
O=[N+]([O-])c1ccc2c(c1)S(=O)(=O)C=C2,1.15,1.14
N[C@@H]1CCCCN(c2c(F)cc3c(=O)c(C(=O)O)cn(C4CC4)c3c2Cl)C1,0.831,0.902
CC(C)COC(=O)OCN1C(=O)CN(CCN2CC(=O)N(COC(=O)OCC(C)C)C(=O)C2)CC1=O,1.12,0.875
CCCCC1=NC2(CCCC2)C(=O)N1Cc1ccc(-c2ccccc2-c2nnn[nH]2)cc1,1.17,0.755
O=C(Nc1nc2ccccc2n1CCN1CCOCC1)c1cccc([N+](=O)[O-])c1,1.36,1.18
CN(C)CC[C@H](CSc1ccccc1)Nc1ccc(S(=O)(=O)NC(=O)c2ccc(N3CCN(Cc4ccccc4-c4ccc(Cl)cc4)CC3)cc2)cc1[N+](=O)[O-],0.732,0.732
CC(=O)SCC[N+](C)(C)C,1.08,1.17
C[C@H]1COC2=C1C(=O)C(=O)c1c2ccc2c1CCCC2(C)C,0.717,0.946
NC(=O)Cc1cccc(C(=O)c2ccccc2)c1N,1.23,1.14
O=C(Nc1ccc(C(=O)O)c(O)c1)c1ccccc1,1.03,1.13
CCCCOC(=O)c1ccc(N)cc1,1.06 and 1.09,1.28 and 1.2
CCCCC[C@H](O)/C=C/[C@H]1C=CC(=O)[C@@H]1CCCCCCC(=O)O,0.865,0.955
CCOC(=O)[C@H](CCc1ccccc1)N[C@@H](C)C(=O)N1[C@H](C(=O)O)C[C@@H]2CCC[C@@H]21,1.09,1.27
C#CCCCCCCCCCCCC(O)CC(O)CO.C=CCCCCCCCCCCCC(O)CC(O)CO (configuration not stated),0.92,0.927
CCOc1ccc2c(c1)C(C)=CC(C)(C)N2,0.955,1.04
NC(=O)c1ncn([C@@H]2O[C@H](CO)[C@@H](O)[C@H]2O)n1,1.19,1.15
CCC(CCC(C)C1CCC2C3CCC4CC(O)CCC4(C)C3CCC12C)C(C)C (configuration not stated),0.958,0.938
CC(C)COCC(CN(Cc1ccccc1)c1ccccc1)N1CCCC1 (configuration not stated),0.856,0.724
CCN(Cc1ccccc1)C(=O)Cn1c(=O)n(C)c2cnc(-c3ccccc3)nc21,0.912,0.946

Structure (SMILES),PER2::LUC luminescence (time after treatment 24 h),PER2::LUC luminescence (time after treatment 30 h)
Cc1cc(OCC(=O)O)cc(C)c1Cc1ccc(O)c(C(C)C)c1,1.11,1.05
Cc1ccc(S(=O)(=O)n2c(N)nc3ccccc32)cc1,1.13,1.16
Cn1c(=O)c2[nH]c(C3CCCC3)nc2n(C)c1=O,0.982,0.839
CNC(=O)c1ccc(-c2cnc3ncc(Cc4ccc5ncccc5c4)n3n2)cc1F,1.2,1.09
CC1=CC2C(C(C)C)CCC(C)(O)C2CC1 (configuration not stated),1.18,1.08
NCC(=O)Nc1ccc(-n2nc(C(F)(F)F)cc2-c2ccc3c(ccc4ccccc43)c2)cc1,0.522,0.679
COc1cc2c(cc1OC(C)C)[C@H](c1ccc(Cl)cc1)N(c1ccc(N(C)C[C@H]3CC[C@H](N4CCN(C)C(=O)C4)CC3)cc1)C(=O)C2,0.766,0.564
O=C1CCC(c2ccccc2)(C2CCN(Cc3ccccc3)CC2)C(=O)N1 (configuration not stated),0.825,0.82
CCC(Oc1ccc(Cl)cc1)C(=O)O[C@]12CCC[C@H](CC1)N2C (mixture of isomers),0.79,0.86
CC12CCC3c4ccc(O)cc4CCC3C1CCC2O (configuration not stated),0.721,0.751
CN[C@H](CC(C)C)C(=O)N[C@H]1C(=O)N[C@@H](CC(N)=O)C(=O)N[C@H]2C(=O)N[C@H]3C(=O)N[C@H](C(=O)N[C@H](C(=O)O)c4cc(O)cc(O)c4-c4cc3ccc4O)[C@H](O)c3ccc(c(Cl)c3)Oc3cc2cc(c3O[C@@H]2O[C@H](CO)[C@@H](O)[C@H](O)[C@H]2O[C@H]2C[C@](C)(N)[C@H](O)[C@H](C)O2)Oc2ccc(cc2Cl)[C@H]1O,0.526,1
O=C(CCCl)NCc1ccccc1,1.13,1.02
CNS(=O)(=O)Cc1ccc2[nH]cc(CCN(C)C)c2c1,1.03,1.09
O=c1c(O)c(-c2ccc(O)c(O)c2)oc2cc(O)ccc12,0.969,0.926
O=C(COc1ccc(Cl)cc1)NC1CCC(NC(=O)COc2ccc(Cl)cc2)CC1 (configuration not stated),1.08,0.94
COc1cc2ncnc(Oc3cccc(NC(=O)Nc4cc(C(C)(C)C(F)(F)F)on4)c3)c2cc1OC,1.02,1.2
COc1ccc(-c2cnc3c(-c4cccc5ncccc45)cnn3c2)cc1,1.06,1.16
NS(=O)(=O)c1cc2c(cc1Cl)N=CNS2(=O)=O,1.03,1.03
COc1cc(C(=O)NS(=O)(=O)c2ccccc2C)ccc1Cc1cn(C)c2ccc(NC(=O)OC3CCCC3)cc12,0.989,1.24
CN[C@H]1CN(c2ccc3c(=O)c(C(=O)O)cn(-c4nccs4)c3n2)C[C@@H]1OC,0.84,0.409
CC1=C(C(=O)OC(C)C)C(c2cccc([N+](=O)[O-])c2)C(C(=O)OC2CN(C(c3ccccc3)c3ccccc3)C2)=C(N)N1 (configuration not stated),1.07,0.971
Cc1cc(C2CCCCC2)n(O)c(=O)c1,0.409 and 0.568 and 0.35,0.692 and 0.375 and 0.376
CNC(=O)c1ccccc1Nc1nc(Nc2ccc3c(c2OC)CCC[C@H](N2CCN(CCO)CC2)C3)ncc1Cl,0.18,0.156
S=C1SCN(Cc2ccccc2)CN1Cc1ccccc1,0.887,0.953
O=C(Nc1ccc(C(=O)Nc2ccc(C(=O)Nc3ccc(S(=O)(=O)O)c4cc(S(=O)(=O)O)cc(S(=O)(=O)O)c34)cc2)cc1)Nc1ccc(C(=O)Nc2ccc(C(=O)Nc3ccc(S(=O)(=O)O)c4cc(S(=O)(=O)O)cc(S(=O)(=O)O)c34)cc2)cc1,0.939,0.828
